{
  "source": "the supplement of paper PMC11417369",
  "note": "± gives the standard deviation of the averaged measurements. This is one part of the list.",
  "data": [
    {"test_system": "PfAP2-G AP2 domain (GST-tagged)", "test": "gcPBM binding intensity (ln(normalized median fluorescence intensity)); higher = stronger DNA binding", "how_it_was_run": "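Binding intensity is the highest Masliner-normalised natural-log median intensity over replicate spots in either probe orientation. To obtain it, GST-tagged P. falciparum DNA-binding domains made in E. coli were incubated for 1 h on an Agilent 4 × 180k array of primer-extended double-stranded 36-bp intergenic genomic probes plus negative controls. Detection used Alexa488 anti-GST antibody with scanning at 488 nm.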", "values": [
      {"sequence": "CATTTATATAAATACACACACACAAAAAAAAAAAAA [CACACA_site5459]", "gcPBM binding intensity (ln)": "10.1 ± 0.47"},
      {"sequence": "TAATAATAAAAAAATAGTACATAAATAAAAATAATA [XGTACX_site4774]", "gcPBM binding intensity (ln)": "11.3 ± 0.69"},
      {"sequence": "ATAAGAAATGTAACTTGTACATAAGGATATATATTT [XGTACX_site236]", "gcPBM binding intensity (ln)": "11 ± 0.49"},
      {"sequence": "GGATTTTAATGAACACGTACATAAAATTAAATAAAT [XGTACX_site7023]", "gcPBM binding intensity (ln)": "11.4 ± 0.9"},
      {"sequence": "TAATTAATTTCTTTACGTACATAATTAATATATATA [XGTACX_site7372]", "gcPBM binding intensity (ln)": "11.2 ± 0.78"},
      {"sequence": "ATATATATGTATAATCGTACAGTTAACGTATTCTTA [XGTACX_site5649]", "gcPBM binding intensity (ln)": "11.1 ± 0.68"},
      {"sequence": "AAACAGATAAATAAAAGTACACATTAAAAGGTAGCA [XGTACX_site4150]", "gcPBM binding intensity (ln)": "11.5 ± 0.83"},
      {"sequence": "GGGAGGATAGTTCACAGTACCCAGGAAATCTACGGA [XGTACX_site2553]", "gcPBM binding intensity (ln)": "10.9 ± 0.53"},
      {"sequence": "GGTTCATAATATGGTTGTACATAAATATATATATAT [XGTACX_site7583]", "gcPBM binding intensity (ln)": "11.3 ± 0.71"},
      {"sequence": "TAACAAGGTTTATATGCATGCAAACATAACCAAAAA [TGCATGCA_site824]", "gcPBM binding intensity (ln)": "10.06 ± 0.042"},
      {"sequence": "AATGGGTAAACATACACACACACATCTATATTTATA [CACACA_site7025]", "gcPBM binding intensity (ln)": "9.85 ± 0.11"},
      {"sequence": "TATAAAAGACTAAATATTATAGAAATATAAATATAA [TGCATGCA_negctrl_site237]", "gcPBM binding intensity (ln)": "9.68 ± 0.12"},
      {"sequence": "TACTATATCATTTATTGTACAATATTTCTTCAGAAA [XGTACX_site1008]", "gcPBM binding intensity (ln)": "11 ± 0.52"},
      {"sequence": "CTTTGCCTTAAAAAGGAACACACATGCTTTTTTTAG [CACACA_site8219]", "gcPBM binding intensity (ln)": "9.975 ± 0.035"},
      {"sequence": "ACAAAATTTACAAAATGTACAAAATATACAAAATAT [XGTACX_site6465]", "gcPBM binding intensity (ln)": "10.5 ± 0.33"},
      {"sequence": "TATATATATATATATGTGCGCATATATTTTTTTGTA [GTGCAC_site9983]", "gcPBM binding intensity (ln)": "10.2 ± 0.31"},
      {"sequence": "TATTTCTCACTGTATGGTACAGATATAAATTTTTAT [XGTACX_site8776]", "gcPBM binding intensity (ln)": "10.7 ± 0.37"},
      {"sequence": "AATAATATACATATATATATTATATTGTAATTTTGT [TGCATGCA_negctrl_site1]", "gcPBM binding intensity (ln)": "9.705 ± 0.021"},
      {"sequence": "ACTAGACAAAATATAATGCACACTATTATTTTTATT [CACACA_site2726]", "gcPBM binding intensity (ln)": "9.995 ± 0.035"},
      {"sequence": "CATGAGGTATAAAAGGTGCAAATTAATGAGAACATT", "gcPBM binding intensity (ln)": "10.2 ± 0.21"},
      {"sequence": "TTATATCAAGGGAATGCATGCATATCGTTTTGTATT [TGCATGCA_site327]", "gcPBM binding intensity (ln)": "9.69 ± 0.25"},
      {"sequence": "TATTCTTATATATATACACACACAAAATATCTACAA [CACACA_site8144]", "gcPBM binding intensity (ln)": "10.1 ± 0.16"},
      {"sequence": "TTGCATTGATCAAACATACACACATGGTTAATAAAA [CACACA_site2084]", "gcPBM binding intensity (ln)": "10.2 ± 0.22"},
      {"sequence": "TAATTATTATTAAATACACACACATACCTCCATGTT [CACACA_site9134]", "gcPBM binding intensity (ln)": "10.09 ± 0.099"},
      {"sequence": "AAAAAAAAAAAATAGGTGCGTGTTACTTTTGTATGC [GTGCAC_site9524]", "gcPBM binding intensity (ln)": "9.935 ± 0.078"},
      {"sequence": "CACAAATAAATATTCACACATATATGTCTTATATAT [CACACA_site5323]", "gcPBM binding intensity (ln)": "9.925 ± 0.007"},
      {"sequence": "ATTACAATAAATTCGTGTACATGATACCGCCGCTAC [XGTACX_site8997]", "gcPBM binding intensity (ln)": "11.3 ± 0.88"},
      {"sequence": "ATCAAATTTTTGTTATGTACACAATCATTTAATAAA [XGTACX_site810]", "gcPBM binding intensity (ln)": "11.3 ± 0.74"},
      {"sequence": "ATGAAATATGCACAGTGTACTTTTATGAGGAACATA [XGTACX_site426]", "gcPBM binding intensity (ln)": "11.4 ± 0.81"},
      {"sequence": "TTTTTAATACAAAAAAAATAATATGTTATATTTCAA [CACACA_negctrl_site35]", "gcPBM binding intensity (ln)": "9.48 ± 0.11"},
      {"sequence": "TATATATATATATATACACACACACCCACCAAAGCG [CACACA_site7904]", "gcPBM binding intensity (ln)": "10.5 ± 0.49"},
      {"sequence": "TGCCCTTTGGTTATAACACACATGCACACGTAAATA [CACACA_site7750]", "gcPBM binding intensity (ln)": "10.3 ± 0.18"},
      {"sequence": "AATTAACCGTGACACACACACATATAAATATAAATA [CACACA_site7790]", "gcPBM binding intensity (ln)": "10.3 ± 0.47"},
      {"sequence": "GGGAATATATAAGATACACACACAAATTAAATATAA [CACACA_site8898]", "gcPBM binding intensity (ln)": "10.2 ± 0.13"},
      {"sequence": "ATATATCTACATATATGTACATATATGTATATGTAT [XGTACX_site5432]", "gcPBM binding intensity (ln)": "11 ± 0.46"},
      {"sequence": "ATATCCTACTTCTAGTGTACATATATGGACTGATGA [XGTACX_site3683]", "gcPBM binding intensity (ln)": "11.4 ± 0.79"},
      {"sequence": "AATAAAATAATAGGCACACATATATATATATATTAT [CACACA_site273]", "gcPBM binding intensity (ln)": "10.1 ± 0.26"},
      {"sequence": "TATATATATATATGTGCACACATAAAGATATTATTT [CACACA_site3734]", "gcPBM binding intensity (ln)": "10.4 ± 0.26"},
      {"sequence": "AAAAAAAAAAAACACACACACACACTAGTACATACA [CACACA_site4551]", "gcPBM binding intensity (ln)": "11.3 ± 0.72"},
      {"sequence": "TACAATTTATGACACACACACAATAATACCTATATA [CACACA_site6704]", "gcPBM binding intensity (ln)": "10.4 ± 0.33"},
      {"sequence": "AAATATATATACCACACACACATACCTCTATTTGTA [CACACA_site1854]", "gcPBM binding intensity (ln)": "10.195 ± 0.007"},
      {"sequence": "TATAGTAAAATTAGGGTGCTTTTGTAACAAAAAAAA", "gcPBM binding intensity (ln)": "10.1 ± 0.3"},
      {"sequence": "TTATTTTCTTTCTATGCACACGCACGTATTTGCCCA [CACACA_site9104]", "gcPBM binding intensity (ln)": "11 ± 0.76"},
      {"sequence": "TGCTTCATAAATAAAACATGCAATATAGAAATTAAA [TGCATGCA_site690]", "gcPBM binding intensity (ln)": "9.885 ± 0.064"},
      {"sequence": "TTTATATAGAAAAATTGTACGAATTACTTTTTTATA [XGTACX_site6843]", "gcPBM binding intensity (ln)": "10.7 ± 0.46"},
      {"sequence": "TATAGCATATTTCACACACACATAATGAATATTATA [CACACA_site3545]", "gcPBM binding intensity (ln)": "9.82 ± 0.13"},
      {"sequence": "AATAAAAAAATAAAAAAAAAAAAAAATAAAAAAAAA [GTGCAC_negctrl_site12]", "gcPBM binding intensity (ln)": "9.55 ± 0.099"},
      {"sequence": "CGTATTTTAATATTTACACACTTATTTTTTATATAA [CACACA_site125]", "gcPBM binding intensity (ln)": "10.115 ± 0.007"},
      {"sequence": "TTTTGTAAAAGGTATATATATATATATATATATATA [GTGCAC_negctrl_site734]", "gcPBM binding intensity (ln)": "9.91 ± 0.59"},
      {"sequence": "TTTAACGTTGAATATACACACATATATTTATTTATA [CACACA_site7695]", "gcPBM binding intensity (ln)": "9.79 ± 0.014"},
      {"sequence": "AAAATGTACTTTTTCTAAAGAGTAATGATGCTTGAT [CACACA_negctrl_site1124]", "gcPBM binding intensity (ln)": "11.6 ± 1"},
      {"sequence": "AATCCTTTAAAACACACACACAAAAAAAAAAAAAAA [CACACA_site642]", "gcPBM binding intensity (ln)": "9.87 ± 0.31"},
      {"sequence": "AAATGGACCTAATTATCACACATTATACTCGTTTTC [CACACA_site5996]", "gcPBM binding intensity (ln)": "10.6 ± 0.43"},
      {"sequence": "TACAAAAAAAGATGATGTACAATGAAAAATAAGAAA [XGTACX_site5840]", "gcPBM binding intensity (ln)": "11 ± 0.39"},
      {"sequence": "AAAAAAAAAAAAAACACACACACAAATACAAATACA [CACACA_site414]", "gcPBM binding intensity (ln)": "10.1 ± 0.35"},
      {"sequence": "ATAAATAATTGTAGTTGTACATGATATTTTTATTAC [XGTACX_site550]", "gcPBM binding intensity (ln)": "11.1 ± 0.63"},
      {"sequence": "AAAATAAATAAATATACACACCATATATATATTTTT [CACACA_site5573]", "gcPBM binding intensity (ln)": "9.63 ± 0.099"}
    ]}
  ]
}
